Our source for the binding values is article PMC11492232.

The chains behind the UniProt entries cited, without tags or fusion partners. Where a name states a change or a piece, a line headed by the entry shows the natural chain unless it says otherwise. Residues count along the entry.
UniProt Q8N884: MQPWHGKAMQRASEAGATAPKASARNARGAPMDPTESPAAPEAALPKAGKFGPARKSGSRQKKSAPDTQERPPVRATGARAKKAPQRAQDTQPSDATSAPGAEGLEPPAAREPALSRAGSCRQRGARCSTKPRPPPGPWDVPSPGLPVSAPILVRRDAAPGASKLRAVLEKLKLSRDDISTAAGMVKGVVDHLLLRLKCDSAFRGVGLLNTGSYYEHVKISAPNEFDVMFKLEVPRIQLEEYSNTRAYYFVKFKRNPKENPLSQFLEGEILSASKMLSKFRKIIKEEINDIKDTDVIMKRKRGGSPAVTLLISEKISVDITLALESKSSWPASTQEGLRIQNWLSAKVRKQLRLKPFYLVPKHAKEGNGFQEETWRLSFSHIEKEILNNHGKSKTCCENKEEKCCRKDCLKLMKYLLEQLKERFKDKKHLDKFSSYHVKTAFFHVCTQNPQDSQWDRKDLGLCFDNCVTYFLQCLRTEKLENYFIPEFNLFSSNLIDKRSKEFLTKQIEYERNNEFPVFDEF
His-Xp-cGAS-1–330: residues 1-330 of Q8N884
His-Xp-cGAS-1–213: residues 1-213 of Q8N884
His-Xp-cGAS-213–522: residues 213-522 of Q8N884
His-Xp-cGAS-330–522: residues 330-522 of Q8N884
UniProt P51812: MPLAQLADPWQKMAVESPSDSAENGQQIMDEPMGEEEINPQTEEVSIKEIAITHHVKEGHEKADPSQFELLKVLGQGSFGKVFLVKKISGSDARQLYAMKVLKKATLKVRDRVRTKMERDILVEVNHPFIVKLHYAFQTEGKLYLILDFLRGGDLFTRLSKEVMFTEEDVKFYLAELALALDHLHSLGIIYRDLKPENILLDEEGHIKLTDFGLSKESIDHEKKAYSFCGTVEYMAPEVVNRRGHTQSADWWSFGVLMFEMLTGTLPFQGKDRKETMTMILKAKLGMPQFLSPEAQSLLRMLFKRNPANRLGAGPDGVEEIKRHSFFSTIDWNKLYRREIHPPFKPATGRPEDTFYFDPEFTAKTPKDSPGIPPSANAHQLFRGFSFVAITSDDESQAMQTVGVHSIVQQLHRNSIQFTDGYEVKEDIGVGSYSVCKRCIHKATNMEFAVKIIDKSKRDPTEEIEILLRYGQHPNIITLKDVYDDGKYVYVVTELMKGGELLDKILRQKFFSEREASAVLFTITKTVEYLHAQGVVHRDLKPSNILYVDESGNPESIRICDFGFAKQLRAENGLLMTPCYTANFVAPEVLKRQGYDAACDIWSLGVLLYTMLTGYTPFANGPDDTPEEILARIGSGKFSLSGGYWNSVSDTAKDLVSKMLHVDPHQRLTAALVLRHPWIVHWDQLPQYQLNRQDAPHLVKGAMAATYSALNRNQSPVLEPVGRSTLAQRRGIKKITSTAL

In test [1] the target is His-Xp-cGAS-1–330 (human) (UniProt Q8N884). In words: co-IP; lysates of HEK293T cells transiently expressing HA-RSK2 and His-Xp-cGAS constructs; Western blot.
For test [2], the target named is His-Xp-cGAS-330–522 (human) (UniProt Q8N884). Described as above.
In test [3] the target is His-Xp-cGAS-213–522 (human) (UniProt Q8N884). Described as above.
Test [4] addresses His-Xp-cGAS-FL (human) (UniProt Q8N884). Described as above.
The target in test [5] is His-Xp-cGAS-1–213 (human) (UniProt Q8N884). The description is as above.
Test [6] has as its target His-cGAS (human) (UniProt Q8N884). The test is described as follows: pull-down; partially purified His-cGAS bound to HisPur Ni-NTA resin, combined with lysates of SK-MEL-2 cells stably expressing HA-mock or HA-RSK2, with or without EGF (10 ng/ml), overnight at 4 °C; wash 100 mM NaCl, 20 mM Tris pH 8.0, 1 mM EDTA, 0.5% NP-40; blot with RSK2 and HA antibodies; only the target purified.

Test [7] deals with Flag-cGAS (human) (UniProt Q8N884). In words: co-IP; lysates of SK-MEL-2 cells stably expressing HA-RSK2 and Flag-cGAS; RIPA lysis buffer, protein G Sepharose, 4 °C; wash 20 mM Tris pH 8.0, 100 mM NaCl, 1 mM EDTA, 0.5% NP-40; Western blot. In general terms: Immunoblotting shows a protein as a band on a membrane.
Test [8] addresses HA-cGAS (human) (UniProt Q8N884). In words: co-IP; lysates of HEK293T cells transiently expressing HA-cGAS and His-Xp-RSK2 constructs; RSK2 band detected in the precipitate; Western blot.
Test [9] deals with endogenous cGAS (human (endogenous in SK-MEL-2)) (UniProt Q8N884). The test is described as follows: co-IP; endogenous cGAS and RSK2 in SK-MEL-2 cell lysate; protein G Sepharose, 4 °C; Western blot.

These are yes or no findings as the source states them, for the method shown. In cells and extracts the contact can be indirect. Some entries that bind do so weakly or less than the wild type.

On to “HA-RSK2 (from UniProt P51812 1-740) (enzyme)”, for which the binding result in test [1] was “binds”; in test [2], “no binding”; in test [3], “binds”; in [4] it was “binds”; in [5], “no binding”; in test [6] it was “binds”. Further, in test [7], the binding entry was “binds”.
With “His-Xp-RSK2-FL (from UniProt P51812 1-740) (enzyme)”, the binding entry in test [8] is given as “binds”.
As to “endogenous RSK2 (from UniProt P51812 1-740) (enzyme)”, in test [9], the binding entry is given as “binds”.
